Measurements reported in the supplement of paper PMC10126150.
Sequences with one replicate were seen in a single cluster, so their values are uncertain.

Tested on: ATP
Test: switch fluorescence ratio, 500 uM ATP over buffer (Cy3 cluster intensity, sum of 5 cycles each) (fold (ratio)); higher = stronger signal-on switching upon ATP binding; sequences stand for … in TCGTCGGCAGCGTCAGATGTGTATAAGAGACAGTTTTTTTTTTTTTTTTTTTTTTTTT…TC
Settings: aptamer strand: ATP DNA aptamer (quencher-CACCTGGGGGAGTATTGCGGAGGAAGG + anchor), 100 nM annealed; ATP concentration: 500 uM; one replicate
Summary of the method: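 Five buffer/ATP imaging cycles were run on Cy3-labelled switching-strand clusters on a modified Illumina MiSeq flow-cell, with NaOH stripping and re-annealing between cycles. In each cycle, clusters annealed to 100 nM quencher-labelled ATP aptamer were imaged in selection buffer, then after 15 min with 500 uM ATP at 22 °C. Per cluster, the fluorescence ratio is summed target-cycle over summed buffer-cycle Cy3 intensity, averaged per switch-domain sequence. Only clusters within 100-1000 RFU were kept.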
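Note: ATP exposure 15 min at 22 °C before imaging.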

Q: How did the switch fluorescence ratio turn out when TTAAATGCA was run?
A: 0.976

Q: How did the switch fluorescence ratio turn out when CAAGCAACCA was run?
A: 1.12

Q: How did the switch fluorescence ratio turn out when CATCTTGGGT was run?
A: 0.976

Q: For CCTGGGAGAG, which switch fluorescence ratio is on record?
A: 1.03

Q: Which switch fluorescence ratio does the source give for GAAGCCCGCA here?
A: 1.13

Q: How did the switch fluorescence ratio turn out when TAAATAAGGA was run?
A: 1.04

Q: For TTTGATCTCA, which switch fluorescence ratio is on record?
A: 0.972

Q: How did the switch fluorescence ratio turn out when ATACCCAGAT was run?
A: 1.03

Q: With TACGTAAAGT as the sequence, how does the switch fluorescence ratio read?
A: 1.03

Q: With CCTGAGGTTG as the sequence, how does the switch fluorescence ratio read?
A: 1.02

Q: GGGACCCTGG was tested. Which switch fluorescence ratio did it give?
A: 0.95

Q: For TGAACCTCGG, which switch fluorescence ratio is on record?
A: 0.992

Q: TTATTTGTAT was tested. Which switch fluorescence ratio did it give?
A: 1.04

Q: GGCCTTAGCG was tested. Which switch fluorescence ratio did it give?
A: 1

Q: GCGCGTCAAT was tested. Which switch fluorescence ratio did it give?
A: 1.03

Q: With GTTGGTAGCT as the sequence, how does the switch fluorescence ratio read?
A: 1.03

Q: Which switch fluorescence ratio does the source give for TGGCTTGTGG here?
A: 0.971

Q: For TACGAATGTA, which switch fluorescence ratio is on record?
A: 0.961

Q: With AGTCATTCAA as the sequence, how does the switch fluorescence ratio read?
A: 1.02

Q: TTTTCACATT was tested. Which switch fluorescence ratio did it give?
A: 1.01

Q: For TGTCTCCGAC, which switch fluorescence ratio is on record?
A: 1.01

Q: With GGAGGGATAC as the sequence, how does the switch fluorescence ratio read?
A: 3.74

Q: With TATTGAGA as the sequence, how does the switch fluorescence ratio read?
A: 1.05

Q: TAGCAGCGGT was tested. Which switch fluorescence ratio did it give?
A: 1.03

Q: For TGCATCTCGA, which switch fluorescence ratio is on record?
A: 1.02

Q: Which switch fluorescence ratio does the source give for TACATCGAAC here?
A: 1.06

Q: With CGCACACGCT as the sequence, how does the switch fluorescence ratio read?
A: 1.1

Q: Which switch fluorescence ratio does the source give for GATAGGATCA here?
A: 1

Q: ATAAGACAGA was tested. Which switch fluorescence ratio did it give?
A: 1.04

Q: For CAGCCAAGCG, which switch fluorescence ratio is on record?
A: 1.09

Q: How did the switch fluorescence ratio turn out when AATGTGCGCA was run?
A: 0.987

Q: With GCATGACCGG as the sequence, how does the switch fluorescence ratio read?
A: 0.959

Q: TCGGGAAAGT was tested. Which switch fluorescence ratio did it give?
A: 0.968

Q: With ATATAGAAGC as the sequence, how does the switch fluorescence ratio read?
A: 1.01

Q: With GCACTACTGA as the sequence, how does the switch fluorescence ratio read?
A: 1.18

Q: Which switch fluorescence ratio does the source give for ACCCGCAGGG here?
A: 1.01

Q: Which switch fluorescence ratio does the source give for AGAAATAGTC here?
A: 1.13

Q: AAACCAGAAG was tested. Which switch fluorescence ratio did it give?
A: 1.05

Q: For ATTCAAAGGG, which switch fluorescence ratio is on record?
A: 0.992

Q: CGGACCGGCT was tested. Which switch fluorescence ratio did it give?
A: 1.01

Q: TATGATCGGC was tested. Which switch fluorescence ratio did it give?
A: 1.03

Q: How did the switch fluorescence ratio turn out when GCGTTACTCG was run?
A: 1.11

Q: AGGGCGATTG was tested. Which switch fluorescence ratio did it give?
A: 1

Q: How did the switch fluorescence ratio turn out when TAACTTTCT was run?
A: 1.05

Q: How did the switch fluorescence ratio turn out when GTGCATGACC was run?
A: 1.05

Q: With GCGACATGCT as the sequence, how does the switch fluorescence ratio read?
A: 1.01

Q: For TCTTGTAAAA, which switch fluorescence ratio is on record?
A: 0.971

Q: CAAGTCAGGA was tested. Which switch fluorescence ratio did it give?
A: 0.931

Q: For ACTGTAATCG, which switch fluorescence ratio is on record?
A: 1.11

Q: How did the switch fluorescence ratio turn out when ACCTTGATTT was run?
A: 1.02

Q: ACTACACCGT was tested. Which switch fluorescence ratio did it give?
A: 1.31

Q: How did the switch fluorescence ratio turn out when GGGGCAAAAG was run?
A: 0.991

Q: For ACAGACCTTG, which switch fluorescence ratio is on record?
A: 1.05

Q: How did the switch fluorescence ratio turn out when CTCATTCGAG was run?
A: 1.01

Q: With CCGGTGGCCT as the sequence, how does the switch fluorescence ratio read?
A: 0.987

Q: How did the switch fluorescence ratio turn out when CCACAGTAA was run?
A: 1.92

Q: Which switch fluorescence ratio does the source give for TGGTGTGAGA here?
A: 1.02

Q: With CCGGATAGTT as the sequence, how does the switch fluorescence ratio read?
A: 0.998

Q: CCTCCCCGTA was tested. Which switch fluorescence ratio did it give?
A: 1.44

Q: With CGCCATTTCC as the sequence, how does the switch fluorescence ratio read?
A: 1.2

Q: How did the switch fluorescence ratio turn out when TGAAATTTCG was run?
A: 0.963

Q: TATGTCCTT was tested. Which switch fluorescence ratio did it give?
A: 0.998

Q: How did the switch fluorescence ratio turn out when AAGATATGCG was run?
A: 0.995

Q: With AACGTAGGCG as the sequence, how does the switch fluorescence ratio read?
A: 1.01

Q: For AACTTTATGG, which switch fluorescence ratio is on record?
A: 1.03

Q: TTCGATGCAG was tested. Which switch fluorescence ratio did it give?
A: 0.977

Q: CTGCCCAACG was tested. Which switch fluorescence ratio did it give?
A: 1.04

Q: CACAAATCAA was tested. Which switch fluorescence ratio did it give?
A: 1.03

Q: TCGGGCACGA was tested. Which switch fluorescence ratio did it give?
A: 0.975

Q: Which switch fluorescence ratio does the source give for TGCCGCCGTG here?
A: 0.968

Q: With GCGTGTAAA as the sequence, how does the switch fluorescence ratio read?
A: 1.05

Q: With TGCGCTTAGG as the sequence, how does the switch fluorescence ratio read?
A: 0.974

Q: Which switch fluorescence ratio does the source give for GCAACTAGCT here?
A: 0.995

Q: How did the switch fluorescence ratio turn out when TAAATGTTTC was run?
A: 0.993

Q: Which switch fluorescence ratio does the source give for TAATAGTAGG here?
A: 0.985

Q: How did the switch fluorescence ratio turn out when CGAAATCGCT was run?
A: 0.991

Q: For GAGATGGCAG, which switch fluorescence ratio is on record?
A: 1.01

Q: Which switch fluorescence ratio does the source give for GGACTTTGCC here?
A: 1.03

Q: Which switch fluorescence ratio does the source give for CTTAAAATTT here?
A: 1

Q: For CAAGCGGTAT, which switch fluorescence ratio is on record?
A: 1.04

Q: How did the switch fluorescence ratio turn out when GCCAGTG was run?
A: 1.06

Q: With GGCGTTCGAG as the sequence, how does the switch fluorescence ratio read?
A: 0.996

Q: Which switch fluorescence ratio does the source give for CTTACTGTGC here?
A: 1.03

Q: With AGAATGTGCG as the sequence, how does the switch fluorescence ratio read?
A: 0.993

Q: Which switch fluorescence ratio does the source give for CCGATGATGG here?
A: 1.14

Q: How did the switch fluorescence ratio turn out when ATTATTTCCG was run?
A: 1.03

Q: With AATCTATTAC as the sequence, how does the switch fluorescence ratio read?
A: 1.03

Q: TTGTCAGGCA was tested. Which switch fluorescence ratio did it give?
A: 1.04

Q: GATAAGAGAT was tested. Which switch fluorescence ratio did it give?
A: 1

Q: Which switch fluorescence ratio does the source give for GTTATAGGCA here?
A: 1.01

Q: How did the switch fluorescence ratio turn out when TAGGTGCGCA was run?
A: 1.07

Q: How did the switch fluorescence ratio turn out when GCCGTGGTTT was run?
A: 0.982

Q: Which switch fluorescence ratio does the source give for ACGACGTCGG here?
A: 1.05

Q: Which switch fluorescence ratio does the source give for ATGCTTTGGC here?
A: 1.02

Q: GGCCGTTAAG was tested. Which switch fluorescence ratio did it give?
A: 1.01

Q: GACTGTCCTC was tested. Which switch fluorescence ratio did it give?
A: 1.02

Q: Which switch fluorescence ratio does the source give for GATATCGCTT here?
A: 1.05

Q: How did the switch fluorescence ratio turn out when CCCAAAGCCT was run?
A: 1.33

Q: TATGCCTAAA was tested. Which switch fluorescence ratio did it give?
A: 0.996

Q: Which switch fluorescence ratio does the source give for CAGATAAGTC here?
A: 0.989

Q: Which switch fluorescence ratio does the source give for AGCCTTTTGG here?
A: 0.97

Q: AGGCAATGCA was tested. Which switch fluorescence ratio did it give?
A: 1.11

Q: With TTCCATTCCC as the sequence, how does the switch fluorescence ratio read?
A: 1.06

Q: With TCCAAATAGG as the sequence, how does the switch fluorescence ratio read?
A: 0.974

Q: CTGACTTC was tested. Which switch fluorescence ratio did it give?
A: 1.1

Q: GTAAGCTGGT was tested. Which switch fluorescence ratio did it give?
A: 1.73

Q: With GGGTGTTCAA as the sequence, how does the switch fluorescence ratio read?
A: 1.04

Q: With ACTGGTACCT as the sequence, how does the switch fluorescence ratio read?
A: 1.16

Q: Which switch fluorescence ratio does the source give for TCTAGTATTT here?
A: 0.972

Q: For ATTATGTTCG, which switch fluorescence ratio is on record?
A: 0.95

Q: For AGAGAGGTGT, which switch fluorescence ratio is on record?
A: 1.03

Q: For TAATTTGTCT, which switch fluorescence ratio is on record?
A: 1

Q: CGACGGCGAC was tested. Which switch fluorescence ratio did it give?
A: 1.15

Q: For GGCAGCTCAT, which switch fluorescence ratio is on record?
A: 1.01

Q: For TTGTAGTTTA, which switch fluorescence ratio is on record?
A: 1.06

Q: Which switch fluorescence ratio does the source give for CCGATCACTG here?
A: 1.1

Q: How did the switch fluorescence ratio turn out when GCCACCGAGG was run?
A: 1.04

Q: Which switch fluorescence ratio does the source give for TCTCCCATCG here?
A: 1.14

Q: For CAATCGAGGA, which switch fluorescence ratio is on record?
A: 1.01

Q: GGGGCACCAC was tested. Which switch fluorescence ratio did it give?
A: 1.01

Q: For GTCTTAAATA, which switch fluorescence ratio is on record?
A: 1

Q: For TATTGCCGCC, which switch fluorescence ratio is on record?
A: 0.972

Q: ACGTGTTCGT was tested. Which switch fluorescence ratio did it give?
A: 1.04

Q: How did the switch fluorescence ratio turn out when ACAGGAGGTA was run?
A: 0.979

Q: GATGCATTTC was tested. Which switch fluorescence ratio did it give?
A: 1.58

Q: How did the switch fluorescence ratio turn out when GCGTTCGCTA was run?
A: 1.06

Q: Which switch fluorescence ratio does the source give for AAGCACATTT here?
A: 1.18

Q: How did the switch fluorescence ratio turn out when CATAGTCTGA was run?
A: 1.04

Q: GACATTAGCC was tested. Which switch fluorescence ratio did it give?
A: 1.05

Q: CTTGCTTTTG was tested. Which switch fluorescence ratio did it give?
A: 1.01

Q: ATTTGGGGCA was tested. Which switch fluorescence ratio did it give?
A: 1.06

Q: ACGTGTCTCG was tested. Which switch fluorescence ratio did it give?
A: 1.04

Q: For TGCTTTGCAG, which switch fluorescence ratio is on record?
A: 0.978

Q: How did the switch fluorescence ratio turn out when CATGTCGACC was run?
A: 1

Q: How did the switch fluorescence ratio turn out when GAGAGATACA was run?
A: 1.01

Q: For ACGCACTTTC, which switch fluorescence ratio is on record?
A: 1.54

Q: With TTGGGGGAC as the sequence, how does the switch fluorescence ratio read?
A: 1.18

Q: How did the switch fluorescence ratio turn out when AAACTATTCA was run?
A: 1.04

Q: Which switch fluorescence ratio does the source give for GTGATACCGA here?
A: 1.08

Q: GTGAGCGATG was tested. Which switch fluorescence ratio did it give?
A: 1.01

Q: For TTTGTAACTC, which switch fluorescence ratio is on record?
A: 0.99

Q: With CCGTCCGACT as the sequence, how does the switch fluorescence ratio read?
A: 1.2

Q: How did the switch fluorescence ratio turn out when TGGCGGCGAG was run?
A: 0.991

Q: GGCCGCTTGG was tested. Which switch fluorescence ratio did it give?
A: 0.956

Q: For CCTCGACAGA, which switch fluorescence ratio is on record?
A: 1.21

Q: Which switch fluorescence ratio does the source give for CACATCCGCC here?
A: 1.63

Q: CCAAGATTGG was tested. Which switch fluorescence ratio did it give?
A: 1.01

Q: With ATAGCCATAA as the sequence, how does the switch fluorescence ratio read?
A: 1.04

Q: With GCCGTTGAAG as the sequence, how does the switch fluorescence ratio read?
A: 1.03

Q: Which switch fluorescence ratio does the source give for GTTCACCTCG here?
A: 1.01

Q: Which switch fluorescence ratio does the source give for TGGAGAGGCA here?
A: 1

Q: Which switch fluorescence ratio does the source give for AATCACGTAT here?
A: 1.21

Q: For TAACGAGTAG, which switch fluorescence ratio is on record?
A: 1

Q: With TTCCTTACT as the sequence, how does the switch fluorescence ratio read?
A: 1.16

Q: With ACACATGGAC as the sequence, how does the switch fluorescence ratio read?
A: 1.01

Q: CCGGCGTTGA was tested. Which switch fluorescence ratio did it give?
A: 1.13

Q: How did the switch fluorescence ratio turn out when TCGTAGCCAC was run?
A: 1.12
